Data from PubChem BioAssay AID588855 (National Center for Advancing Translational Sciences (NCATS), 2011).
The whole screen tested about 410,000 compounds, of which about 5,000 (1.2%) were called active. The inconclusive results got no clear call from the source; some entries with a clear call stand among them for comparison. Calls come from the whole dose curve; as a rule, active = well fitted inhibition curve with a large enough effect; inconclusive = small, poorly fitted or top-dose-only effect; inactive = no such curve, though single readings can be large or run the other way. Potencies of inconclusive entries are doubtful fits and often do not repeat.
% is set by controls: 0 for no effect and ±100 for the full control effect; potency is the fitted concentration of half-maximal effect; tags give direction and shape of the fitted curve.

Test: qHTS for Inhibitors of TGF-b; note: nearly all actives have a fitted effect of over 65% in size
Details: HepG2 CAGA-GFP TGF-b/SMAD3 reporter, GFP fluorescence, 18 h, TGF-beta stimulated, 500 pg/mL final; series mostly up to 46.1 µM; activity, negative = inhibition: at the top concentration
Summary of the method: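 First, reporter cells (HEPG2 CAGA-GFP) rested 2 h at 37 degrees C. Next, compounds were pinned in and TGF-beta added to 500 pg/mL final. After 18 h, GFP was imaged per cell and summed per well.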
For `CCCNc1ncnc2onc(C)c12`, the Potency was inconclusive: 8.91 µM [inhibitor, partial curve, poor fit].
With `O=C(c1ccccc1)c1ccc(OCC(O)CNCc2ccc(F)cc2)cc1` (configuration not stated) the Potency was inconclusive: 20 µM [inhibitor, partial curve, poor fit].
With `O=C(C1CCCN(S(=O)(=O)c2cccc3nsnc23)C1)N1CCc2ccccc21` (configuration not stated) the Potency was inconclusive: 35.5 µM [inhibitor, single point].
For `CN=C1N[C@H](c2ccccc2)N(c2ccccc2)S1`, the “activity, negative = inhibition” value was inactive: -1.57%.
For `CCn1c(C)nc2cc(C(=O)N/N=C/c3ccc(OC)c(O)c3)ccc21`, the Potency was inconclusive: 12.6 µM [inhibitor, single point].
For `O=C(NCc1cccc(Cl)c1)c1cc(COc2ccc3ncccc3c2)on1`, the Potency was inconclusive: 14.1 µM [inhibitor, partial curve, poor fit].
With `CCC(=O)NCCC(c1ccco1)c1ccccc1OC` (configuration not stated) the Potency was inconclusive: 11.2 µM [inhibitor, partial curve, poor fit].
With `C[n+]1ccccc1/C=C1\Sc2ccccc2N1CCO` the Potency was inconclusive: 10 µM [inhibitor, partial curve].
With `N#Cc1ccc(Nc2nc(-c3ccccc3)cs2)cc1` the Potency was inconclusive: 35.5 µM [inhibitor, single point].
With `Cn1c(C(=O)N(Cc2ccccc2)Cc2cccs2)cc2sccc21` the Potency was inconclusive: 35.5 µM [inhibitor, single point].
For `COc1ccc(CN(C(=O)/C=C/C(=O)c2ccc(OC)cc2O)C(C(=O)NC2CCCCC2)c2ccncc2)cc1` (configuration not stated), the Potency was inconclusive: 8.91 µM [inhibitor, partial curve, poor fit].
With `CCCn1cc(S(=O)(=O)c2cc(C)ccc2C)c(=O)c2cc(F)c(N3CCOCC3)cc21` the Potency was inconclusive: 15.8 µM [inhibitor, single point].
In the case of `CC(=O)Nc1ccc(OC(=O)c2c(-c3ccccc3Cl)noc2C)cc1`, the Potency is reported as inconclusive: 7.94 µM [inhibitor, partial curve].
For `Cc1ccc(C(=O)C(C)Oc2cccc(NC(=O)c3ccco3)c2)cc1` (configuration not stated), the “activity, negative = inhibition” value was inactive: 2.72%.
In the case of `O=C(Nc1nnc(CSCc2ccccc2F)s1)c1cccc([N+](=O)[O-])c1`, the Potency is reported as inconclusive: 35.5 µM [inhibitor, single point].
In the case of `COC(=O)c1c(SCC(=O)Nc2cc(C)cc(C)c2)[nH]c2ccccc2c1=O`, the Potency is reported as active: 12.6 µM.
In the case of `CCCC(=O)Nc1ccc2c(c1)nc(CN1CCN(C(=O)OCC)CC1)n2CC`, the “activity, negative = inhibition” value is reported as inactive: -4.08%.
For `C[C@H](CO)N1C[C@H](C)[C@@H](CN(C)Cc2ccc3c(c2)OCO3)Oc2cc(Br)ccc2S1(=O)=O`, the Potency was inconclusive: 12.6 µM [inhibitor, single point].
For `Cc1cc(Oc2ccc(Br)cc2)nc(SCC(=O)c2ccccc2)n1`, the Potency was inconclusive: 14.1 µM [inhibitor, partial curve, poor fit].
With `Cc1ccc(S(=O)(=O)Cc2cc(F)c([N+](=O)[O-])cc2[N+](=O)[O-])cc1` the Potency was inconclusive: 14.1 µM [inhibitor, partial curve, poor fit].
In the case of `CC(NC(=S)NCc1ccc(F)cc1)C12CC3CC(CC(C3)C1)C2` (configuration not stated), the Potency is reported as inconclusive: 15.8 µM [inhibitor, partial curve, poor fit].
With `CNc1ccccc1C(=O)OC(C)C(=O)Nc1ccc(Cl)cn1` (configuration not stated) the “activity, negative = inhibition” value was inactive: -34.8%.
With `CCn1c(SCc2nc3sc(C(=O)O)c(C)c3c(=O)[nH]2)nc2ccccc21` the “activity, negative = inhibition” value was inactive: 11.3%.
For `Cc1cc(C)c2sc(N(CCCN(C)C)C(=O)c3ccc(S(=O)(=O)N(C)C4CCCCC4)cc3)nc2c1`, the Potency was inconclusive: 35.5 µM [inhibitor, single point].
For `COc1ccc(OC)c(NC(=O)C2CCC(CNc3c(N4CCC(C)CC4)c(=O)c3=O)CC2)c1` (configuration not stated), the “activity, negative = inhibition” value was inactive: 5.84%.
For `COc1ccccc1NS(=O)(=O)c1ccc(Cl)c(NC(=S)NC(=O)C2CCCC2)c1`, the Potency was inconclusive: 35.5 µM [inhibitor, single point].
With `COc1ccc(-n2ccn(CC(=O)Nc3ccc(OC)cc3OC)c(=O)c2=O)cc1` the “activity, negative = inhibition” value was inactive: 5.76%.
For `Cc1ccc(-c2nnc(SCC(=O)N/N=C/c3ccc(C)s3)n2-c2ccc(C)cc2)cc1`, the Potency was inconclusive: 35.5 µM [inhibitor, single point].
For `CC(=O)OC(C)(C)/C=C/C(=O)[C@](C)(O)C1[C@H](O)C[C@@]2(C)C3CC=C4C(C=C(O[C@@H]5O[C@H](CO)[C@@H](O)[C@H](O)[C@H]5O)C(=O)C4(C)C)[C@]3(C)C(=O)C[C@]12C` (some centres not stated), the Potency was active: 5.01 µM.
In the case of `C/C(=N\NC(=O)c1ccc(CN(C)S(=O)(=O)c2ccc(C)cc2)cc1)c1ccc(OC(F)F)cc1`, the Potency is reported as inconclusive: 6.31 µM [inhibitor, full curve].
In the case of `Cc1nn(-c2ccccc2)nc1C(=O)Nc1cccc(C(=O)NC2CC2)c1`, the “activity, negative = inhibition” value is reported as inactive: -0.661%.
For `O=C(NCc1ccncc1)c1cc(C(=O)C2CCCCC2)c[nH]1`, the “activity, negative = inhibition” value was inactive: -9.62%.
In the case of `O=C(Cc1c(O)c2ccccc2[nH]c1=O)NCc1ccccc1F`, the Potency is reported as inconclusive: 6.31 µM [inhibitor, single point].
For `COC(=O)Cc1cc(=O)n(-c2nc3ccccc3[nH]2)[nH]1`, the “activity, negative = inhibition” value was inactive: 1.49%.
With `CN(Cc1ccccc1)S(=O)(=O)c1ccc(Cl)c(C(=O)OCC(=O)NC2CCS(=O)(=O)C2)c1` (configuration not stated) the “activity, negative = inhibition” value was inactive: 1.72%.
For `CC(C)(C)c1nnc(NC(=S)Nc2ccccc2)s1`, the “activity, negative = inhibition” value was inactive: -18.6%.
In the case of `CCN(CC)CCNC(=O)CSc1c2c(nc3cc(Cl)ccc13)CCCC2`, the Potency is reported as active: 17.8 µM.
For `Cc1ccc(CN2CCSc3ccc(C(=O)N4CCN(c5ncccn5)CC4)cc32)cc1`, the “activity, negative = inhibition” value was inactive: 1.83%.
For `OC(COCc1ccccc1)CN1CCCCC1` (configuration not stated), the “activity, negative = inhibition” value was inactive: -2.06%.
In the case of `COC(=O)CNC(c1ccccc1)c1cc(Br)ccc1NC(=O)CNC(=O)OCc1ccccc1` (configuration not stated), the Potency is reported as inconclusive: 35.5 µM [inhibitor, single point].
With `Cn1c(-c2ccccc2)cnc1NCc1ccc(-c2ccccc2)cc1` the Potency was inconclusive: 35.5 µM [inhibitor, single point].
For `Cc1ccc(NC(=O)COC(=O)CCc2ccc(S(=O)(=O)N3CCOCC3)cc2)cc1F`, the Potency was inconclusive: 1.12 µM [inhibitor, full curve].
With `CC(C)c1ccc(NC(=S)N2CCN(Cc3ccccc3)CC2)cc1` the Potency was inconclusive: 35.5 µM [inhibitor, single point].
With `CCCCC(=O)O` the “activity, negative = inhibition” value was inactive: 1.68%.
For `CCc1c(-c2ccccc2)nc2ccccc2c1C(=O)NCCc1ccccc1`, the Potency was inconclusive: 35.5 µM [inhibitor, single point].
With `CC(C)(C)c1ccc(C(=O)N2CCCN(c3ccc([N+](=O)[O-])cn3)CC2)cc1` the Potency was inconclusive: 12.6 µM [inhibitor, partial curve, poor fit].
With `CSCC[C@H](NC(=O)c1cccs1)C(=O)N1CCC2(CC1)NCCc1[nH]cnc12` the “activity, negative = inhibition” value was inactive: 6.76%.
With `Cc1cc(C(=O)CN2C(=O)C(=O)N(CC(C)C)C2=O)c(C)n1C1CC1` the “activity, negative = inhibition” value was inactive: 0%.
With `CC1CCCN(C(=O)CN(C)S(=O)(=O)c2ccc3c(c2)c(=O)n(C)c(=O)n3C)C1` (configuration not stated) the Potency was inconclusive: 14.1 µM [inhibitor, partial curve, poor fit].
In the case of `O=c1ccn([C@@H]2O[C@H](CNCc3ccccc3OCc3ccc(Cl)cc3Cl)[C@@H](O)[C@H]2O)c(=O)[nH]1`, the Potency is reported as inconclusive: 12.6 µM [inhibitor, partial curve, poor fit].
In the case of `Cc1ccc(NC(=O)c2ccccc2Br)cc1S(=O)(=O)N(C)C`, the Potency is reported as inconclusive: 0.631 µM [inhibitor, full curve, poor fit].
In the case of `C=CCNC(=O)c1ccc(CN(c2ccc(OCC)cc2)S(=O)(=O)c2ccc(C)cc2)cc1`, the Potency is reported as inconclusive: 35.5 µM [inhibitor, single point].
In the case of `Cc1cc(NC(=O)CCN2C(=O)C3C4C=CC(C4)C3C2=O)c2ccccc2n1` (configuration not stated), the “activity, negative = inhibition” value is reported as inactive: -14.2%.
In the case of `CN(C)c1ccc(/C=C/c2cc(N(C)C)nc3ccccc23)cc1`, the Potency is reported as inconclusive: 22.4 µM [inhibitor, partial curve, poor fit].
With `O=C(/C=C/c1ccc([N+](=O)[O-])cc1)NCCc1ccc(F)cc1` the Potency was inconclusive: 35.5 µM [inhibitor, single point].
With `COc1ccc(CNC(=O)C[C@H]2C[C@H](C(=O)N3CCCCC3)[C@@]3(C)c4[nH]c5ccc(Cl)cc5c4CCN3C2=O)cc1OC` the Potency was inconclusive: 20 µM [inhibitor, partial curve, poor fit].
With `COc1ccc2c(c1)[nH]c1c(N3CCN(Cc4ccc5c(c4)OCO5)CC3)ncnc12` the Potency was active: 20 µM.
With `O=S(=O)(Nc1cccc(-c2nc3cccnc3s2)c1)c1ccc2c(c1)CCCC2` the Potency was active: 12.6 µM.
For `O=C(COc1ccc(F)cc1)Nc1ccc2nc(SCC(=O)N3CCc4ccccc43)sc2c1`, the “activity, negative = inhibition” value was inactive: -15.4%.
In the case of `C[n+]1cccc(O)c1SCc1ccccc1`, the Potency is reported as inconclusive: 35.5 µM [inhibitor, single point].
In the case of `Cc1ccc(C)c(NC(=O)COC(=O)CCNC(=O)c2ccco2)c1`, the “activity, negative = inhibition” value is reported as inactive: 8.38%.
For `CC(=O)Nc1ccc(C2Sc3ccccc3NC3=C2C(=O)c2ccccc23)cc1` (configuration not stated), the Potency was inconclusive: 25.1 µM [inhibitor, single point].
In the case of `Clc1ccc(COc2ccccc2CNCc2cccnc2)cc1`, the Potency is reported as inconclusive: 20 µM [inhibitor, single point].
In the case of `Cc1cc(C)n(C(C)CNS(=O)(=O)c2ccc(Cl)cc2)n1` (configuration not stated), the “activity, negative = inhibition” value is reported as inactive: 21.5%.
For `CC(=O)c1ccc(S(=O)(=O)Nc2cccc(-c3ccc4nncn4n3)c2)cc1`, the “activity, negative = inhibition” value was inactive: -19.1%.
For `Cc1c(O)ccc2c3c(c(=O)oc12)CCC(C)C3` (configuration not stated), the Potency was inconclusive: 6.31 µM [inhibitor, single point].
In the case of `COc1ccc(C)cc1S(=O)(=O)N1CCN(c2cccc(Cl)c2)CC1`, the Potency is reported as inconclusive: 10 µM [inhibitor, partial curve, poor fit].
